# Assay results published in PubChem BioAssay (NCATS).
# Inconclusive results are not listed. Calls follow the shape of the dose curve; as a rule, active = well fitted curve in the direction sought with a large enough effect; inconclusive = small, poorly fitted or top-dose-only effect, or another doubt; inactive = no such curve, though single readings can be large; an effect the other way counts as inactive or inconclusive. Some structures have more than one record in an assay (separate samples or runs), and their calls can disagree. A number of entries come with more than one value. This is not the full list of results. The source may hold further records. The values listed for one entry repeat one measurement in other runs, samples, wells, individuals or studies. Records carry a tag for their origin. Letters hold for one entry only.
# What was measured:
# [1] = qHTS of pediatric cancer cell lines to identify multiple opportunities for drug repurposing: Primary screen for TC32 cells (AID 1347089); also: nearly all actives have a fitted effect of over 60% in size
# Method in brief: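 Measured quantity: luminescence from CellTiter-Glo, reflecting metabolically active TC32 cells following 48 h of compound. Curves came straight from multi-point titrations, with 8 or 11 points in primary and 11 in confirmatory screening.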
# [2] = qHTS of pediatric cancer cell lines to identify multiple opportunities for drug repurposing: Primary screen for DAOY cells (AID 1347090); also: nearly all actives have a fitted effect of over 55% in size
# Method in brief: (§1)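 Viability measured as metabolically active cells via CellTiter-Glo luminescence following 48 hours of compound exposure, 11-point dilutions in confirmatory testing. 500-1,000 cells/well plated 5 hours before dosing; controls were DMSO and 2.3 µM bortezomib.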
# [3] = qHTS of pediatric cancer cell lines to identify multiple opportunities for drug repurposing: Primary screen for LAN-5 cells (AID 1347100)
# Method in brief: (§2)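 Viability after 48 h compound treatment at 37C, 500-1,000 cells/well, read as ATP luminescence with CellTiter-Glo. Primary screens used 11-point (MIPE, 0.78 nM-46 µM) or 8-point (NPC, 0.59 nM-46 µM) final concentrations; follow-up screens used 11-point dilutions.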
# [4] = qHTS of pediatric cancer cell lines to identify multiple opportunities for drug repurposing: Primary screen for BT-12 cells (AID 1347101); also: nearly all actives have a fitted effect of over 25% in size
# Method in brief: (§3)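 Cells (500-1,000/well) rested 5 h, then received compounds for 48 h; metabolically active cells were measured by CellTiter-Glo luminescence. Final concentrations spanned up to 46 µM (MIPE, 11-point) or 0.59 nM-46 µM (NPC, 8-point) in primary screens, 11-point in follow-ups.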
# [5] = qHTS of pediatric cancer cell lines to identify multiple opportunities for drug repurposing: Primary screen for OHS-50 cells (AID 1347103); also: nearly all actives have a fitted effect of over 40% in size
# Method in brief: as §3
# [6] = qHTS of pediatric cancer cell lines to identify multiple opportunities for drug repurposing: Primary screen for MG 63 (6-TG R) cells (AID 1347105); also: nearly all actives have a fitted effect of over 50% in size
# Method in brief: (§4)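 Phenotypic viability qHTS, 48 h compound exposure, CellTiter-Glo luminescence read-out; multi-concentration dosing so that potency and efficacy derive directly from the primary screen's curves.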
# [7] = qHTS of pediatric cancer cell lines to identify multiple opportunities for drug repurposing: Primary screen for A673 cells (AID 1347092); also: nearly all actives have a fitted effect of over 45% in size
# Method in brief: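 Cells are plated, rested 5 h, dosed by pintool, incubated 48 h, then lysed with CellTiter-Glo and read by luminescence. DMSO is the neutral control; bortezomib at 2.3 uM final is the positive control.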
# [8] = qHTS of pediatric cancer cell lines to identify multiple opportunities for drug repurposing: Primary screen for SK-N-MC cells (AID 1347093)
# [9] = qHTS of pediatric cancer cell lines to identify multiple opportunities for drug repurposing: Primary screen for NB1643 cells (AID 1347099); also: nearly all actives have a fitted effect of over 50% in size
# [10] = qHTS of pediatric cancer cell lines to identify multiple opportunities for drug repurposing: Primary screen for RD cells (AID 1347104); also: nearly all actives have a fitted effect of over 55% in size
# Method in brief: as §4
# [11] = qHTS of pediatric cancer cell lines to identify multiple opportunities for drug repurposing: Primary screen for Rh41 cells (AID 1347108); also: nearly all actives have a fitted effect of over 70% in size
# Method in brief: as §4
# [12] = qHTS of pediatric cancer cell lines to identify multiple opportunities for drug repurposing: Primary screen for SK-N-SH cells (AID 1347098); also: nearly all actives have a fitted effect of over 65% in size
# Method in brief: as §3
# [13] = qHTS of pediatric cancer cell lines to identify multiple opportunities for drug repurposing: Primary screen for SJ-GBM2 cells (AID 1347091)
# Method in brief: as §1
# [14] = qHTS of pediatric cancer cell lines to identify multiple opportunities for drug repurposing: Primary screen for BT-37 cells (AID 1347094)
# Method in brief: as §4
# [15] = qHTS of pediatric cancer cell lines to identify multiple opportunities for drug repurposing: Primary screen for NB-EBc1 cells (AID 1347095)
# [16] = qHTS of pediatric cancer cell lines to identify multiple opportunities for drug repurposing: Primary screen for Rh18 cells (AID 1347102); also: nearly all actives have a fitted effect of over 65% in size
# Method in brief: as §2
# [17] = qHTS of pediatric cancer cell lines to identify multiple opportunities for drug repurposing: Primary screen for U-2 OS cells (AID 1347096); also: nearly all actives have a fitted effect of over 50% in size
# Method in brief: as §2
# [18] = qHTS of pediatric cancer cell lines to identify multiple opportunities for drug repurposing: Primary screen for Saos-2 cells (AID 1347097); also: nearly all actives have a fitted effect of over 40% in size
# Method in brief: as §4
# Potency is read from the fitted curve at half-maximal effect.
smiles,measurement,setting,value
Oc1c(Cl)cc(Cl)c2cccnc12,Potency,[1],active: 16.7 µM [sample A] and inactive [sample B]
Cc1c(-c2ccc(O)cc2)n(Cc2ccc(OCCN3CCCCCC3)cc2)c2ccc(O)cc12,Potency,[2],inactive [sample A] and active: 26.6 µM [sample B]
same,Potency,[3],inactive [sample A] and active: 21.1 µM [sample B]
same,Potency,[4],inactive [sample A] and active: 30.9 µM [sample B]
same,Potency,[5],inactive [sample A] and active: 30.9 µM [sample B]
same,Potency,[6],inactive [sample A] and active: 26.6 µM [sample B]
O=c1cc(O)c(Cl)c[nH]1,Potency,[2],active: 11.8 µM [sample A] and inactive [sample B]
same,Potency,[7],active: 1.18 µM [sample A] and inactive [sample B]
same,Potency,[8],active: 1.48 µM [sample A] and inactive [sample B]
same,Potency,[9],active: 1.48 µM [sample A] and inactive [sample B]
same,Potency,[10],active: 2.96 µM [sample A] and inactive [sample B]
same,Potency,[11],active: 4.69 µM [sample A] and inactive [sample B]
CNC1CCCN(c2c(F)cc3c(=O)c(C(=O)O)cn(C4CC4)c3c2OC)C1 (configuration not stated),Potency,[7],active: 14.8 µM [sample A] and inactive [sample B]
same,Potency,[12],active: 19.2 µM [sample A] and inactive [sample B]
same,Potency,[9],active: 3.72 µM [sample A] and inactive [sample B]
same,Potency,[11],active: 14.8 µM [sample A] and inactive [sample B]
Cc1nnc(NS(=O)(=O)c2ccc(N)cc2)s1,Potency,[2],inactive [sample A] and active: 3.72 µM [sample B]
same,Potency,[13],inactive [sample A] and active: 5.9 µM [sample B]
same,Potency,[7],inactive [sample A] and active: 935 nM [sample B]
same,Potency,[14],inactive [sample A] and active: 6.11 µM [sample B]
same,Potency,[15],inactive [sample A] and active: 13.2 µM [sample B]
same,Potency,[12],inactive [sample A] and active: 21.5 µM [sample B]
same,Potency,[9],inactive [sample A] and active: 935 nM [sample B]
same,Potency,[3],inactive [sample A] and active: 2.64 µM [sample B]
same,Potency,[16],inactive [sample A] and active: 3.32 µM [sample B]
same,Potency,[5],inactive [sample A] and active: 3.85 µM [sample B]
same,Potency,[10],inactive [sample A] and active: 2.35 µM [sample B]
same,Potency,[6],inactive [sample A] and active: 4.69 µM [sample B]
same,Potency,[11],inactive [sample A] and active: 2.35 µM [sample B]
COc1ccc(C(=O)CC(=O)c2ccc(C(C)(C)C)cc2)cc1,Potency,[1],inactive [sample A] and active: 14.7 µM [sample B]
same,Potency,[2],inactive [sample A] and active: 3.72 µM [sample B]
same,Potency,[13],inactive [sample A] and active: 6.62 µM [sample B]
same,Potency,[7],inactive [sample A] and active: 743 nM [sample B]
same,Potency,[8],inactive [sample A] and active: 935 nM [sample B]
same,Potency,[14],inactive [sample A] and active: 1.37 µM [sample B]
same,Potency,[15],inactive [sample A] and active: 833 nM [sample B]
same,Potency,[17],inactive [sample A] and active: 9.35 µM [sample B]
same,Potency,[18],inactive [sample A] and active: 18.7 µM [sample B]
same,Potency,[12],inactive [sample A] and active: 2.41 µM [sample B]
same,Potency,[9],inactive [sample A] and active: 1.66 µM [sample B]
same,Potency,[3],inactive [sample A] and active: 264 nM [sample B]
same,Potency,[4],inactive [sample A] and active: 6.11 µM [sample B]
same,Potency,[16],inactive [sample A] and active: 8.33 µM [sample B]
same,Potency,[10],inactive [sample A] and active: 3.72 µM [sample B]
same,Potency,[11],inactive [sample A] and active: 2.35 µM [sample B]
CCC(=O)O[C@]1(C(=O)SCF)[C@H](C)C[C@H]2[C@@H]3C[C@H](F)C4=CC(=O)C=C[C@]4(C)[C@@]3(F)[C@@H](O)C[C@@]21C,Potency,[7],inactive [sample A] and active: 18.7 µM [sample B]
same,Potency,[12],inactive [sample A] and active: 27.1 µM [sample B]
COc1cnc(NS(=O)(=O)c2ccc(N)cc2)nc1,Potency,[7],inactive [sample A] and active: 9.35 µM [sample B]
same,Potency,[8],inactive [sample A] and active: 5.9 µM [sample B]
same,Potency,[12],inactive [sample A] and active: 27.1 µM [sample B]
same,Potency,[9],inactive [sample A] and active: 10.5 µM [sample B]
same,Potency,[3],inactive [sample A] and active: 14.8 µM [sample B]
same,Potency,[10],inactive [sample A] and active: 26.4 µM [sample B]
Clc1ccccc1CN1CCc2sccc2C1,Potency,[13],active: 3.72 µM [sample A] and inactive [sample B]
same,Potency,[7],active: 187 nM [sample A] and inactive [sample B]
same,Potency,[8],active: 33.2 µM [sample A] and inactive [sample B]
same,Potency,[3],active: 1.48 µM [sample A] and inactive [sample B]
same,Potency,[5],active: 1.93 µM [sample A] and inactive [sample B]
CCOC(=O)[C@H](CCc1ccccc1)N[C@H]1CS[C@H](c2cccs2)CN(CC(=O)O)C1=O,Potency,[2],active: 2.96 µM [sample A] and inactive [sample B]
same,Potency,[13],active: 1.66 µM [sample A] and inactive [sample B]
same,Potency,[7],active: 590 nM [sample A] and inactive [sample B]
same,Potency,[8],active: 590 nM [sample A] and inactive [sample B]
same,Potency,[14],active: 2.43 µM [sample A] and inactive [sample B]
same,Potency,[15],active: 1.48 µM [sample A] and inactive [sample B]
same,Potency,[17],active: 11.8 µM [sample A] and inactive [sample B]
same,Potency,[18],active: 5.9 µM [sample A] and inactive [sample B]
same,Potency,[12],active: 6.07 µM [sample A] and inactive [sample B]
same,Potency,[9],active: 662 nM [sample A] and inactive [sample B]
same,Potency,[3],active: 1.18 µM [sample A] and inactive [sample B]
same,Potency,[4],active: 4.85 µM [sample A] and inactive [sample B]
same,Potency,[16],active: 1.66 µM [sample A] and inactive [sample B]
same,Potency,[5],active: 1.53 µM [sample A] and inactive [sample B]
same,Potency,[10],active: 1.87 µM [sample A] and inactive [sample B]
same,Potency,[6],active: 4.69 µM [sample A] and inactive [sample B]
same,Potency,[11],active: 1.87 µM [sample A] and inactive [sample B]
CC(C)(Sc1cc(C(C)(C)C)c(O)c(C(C)(C)C)c1)Sc1cc(C(C)(C)C)c(O)c(C(C)(C)C)c1,Potency,[7],inactive [sample A] and active: 469 nM [sample B]
same,Potency,[8],inactive [sample A] and active: 2.96 µM [sample B]
Cc1ccnc2c1NC(=O)c1cccnc1N2C1CC1,Potency,[8],inactive [sample A] and active: 6.62 µM [sample B]
same,Potency,[12],inactive [sample A] and active: 9.61 µM [sample B]
C[C@@H](CN1CC(=O)NC(=O)C1)N1CC(=O)NC(=O)C1,Potency,[7],inactive [sample A] and active: 2.96 µM [sample B]
same,Potency,[10],inactive [sample A] and active: 16.6 µM [sample B]
O=C(O)c1cccnc1,Potency,[8],inactive [sample A] and active: 20.9 µM [sample B]
O=C(NCC1CN(c2ccc(N3CCOCC3=O)cc2)C(=O)O1)c1ccc(Cl)s1 (configuration not stated),Potency,[8],inactive [sample A] and active: 3.72 µM [sample B]
CC(C(=O)O)c1ccc2c(c1)CC(=O)c1ccccc1S2 (configuration not stated),Potency,[2],active: 46.9 nM [sample A] and inactive [sample B]
same,Potency,[7],active: 469 nM [sample A] and inactive [sample B]
same,Potency,[8],active: 33.2 nM [sample A] and inactive [sample B]
same,Potency,[14],active: 2.17 µM [sample A] and inactive [sample B]
same,Potency,[12],active: 24.1 µM [sample A] and inactive [sample B]
same,Potency,[9],active: 1.48 µM [sample A] and inactive [sample B]
same,Potency,[4],active: 2.43 µM [sample A] and inactive [sample B]
same,Potency,[5],active: 8.63 µM [sample A] and inactive [sample B]
same,Potency,[10],active: 5.26 µM [sample A] and inactive [sample B]
